# This is one part of the list.
# How the values were obtained:
# HSkMC = human skeletal muscle cells; experiment: cytotoxicity call (relative viability < 0.9); conditions: 10 µM
# HepG2 = experiment: cytotoxicity call (relative viability < 0.9); conditions: 10 µM
# S. aureus RN4220 = experiment: growth inhibition call (relative growth <= 0.2); conditions: 50 µM
SMILES,cytotoxicity call (HSkMC),cytotoxicity call (HepG2),growth inhibition call (S. aureus RN4220)
COCCNC(=O)C[C@H]1CC[C@H]2[C@@H](COC[C@@H](O)CN2S(=O)(=O)c2ccccc2F)O1,inactive,inactive,inactive
C[C@H]1CN([C@@H](C)CO)C(=O)c2cc(NC(=O)Nc3ccccc3)ccc2O[C@@H]1CN(C)Cc1ccc(Oc2ccccc2)cc1,inactive,active,inactive
COc1ccc(S(=O)(=O)N(C)C[C@H]2Oc3ccc(NS(=O)(=O)c4ccc(C)cc4)cc3C(=O)N([C@H](C)CO)C[C@@H]2C)cc1,inactive,inactive,inactive
C[C@@H]1CN([C@H](C)CO)C(=O)Cc2cc(NS(C)(=O)=O)ccc2O[C@@H]1CN(C)S(C)(=O)=O,inactive,inactive,inactive
C[C@H](O)C#Cc1cnc2c(c1)C(=O)N([C@H](C)CO)C[C@H](C)[C@@H](CN(C)Cc1cncnc1)O2,inactive,inactive,inactive
C[C@@H]1CCCCO[C@H](CN(C)C(=O)Nc2ccc3c(c2)OCO3)[C@H](C)CN([C@H](C)CO)C(=O)c2cc(NC(=O)CCC(F)(F)F)ccc2O1,inactive,inactive,inactive
COc1ccc(NC(=O)N(C)C[C@@H]2OCCCC[C@H](C)Oc3ccc(NS(=O)(=O)c4ccc(OC)cc4)cc3C(=O)N([C@H](C)CO)C[C@H]2C)cc1,inactive,inactive,inactive
Cc1noc(C)c1NC(=O)Nc1ccc2c(c1)CC(=O)N([C@@H](C)CO)C[C@@H](C)[C@H](CN(C)S(=O)(=O)c1cccs1)O2,inactive,inactive,inactive
Cc1noc(C)c1NC(=O)N(C)C[C@H]1OCCCC[C@H](C)Oc2ccc(NC(=O)C3CCCCC3)cc2C(=O)N([C@H](C)CO)C[C@@H]1C,inactive,inactive,inactive

# Reference: the antibiotic and cytotoxicity screens of Wong et al. (2023)
